{
  "source": "the supplement of paper PMC8728848",
  "experiment_in_all_cases": "glycan array binding signal (z-score within array); higher = stronger binding",
  "conditions_in_all_cases": "glycan notation: IUPAC condensed, linker removed",
  "key": {"[1]": {"target": "GlcNAc(b1-3)Gal(b1-4)GlcNAc(b1-3)Gal(b1-4)GlcNAc(b1-3)GalNAc", "summary_of_the_method": "(§1)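 The binding signal is a Z-score computed within each array. Data were drawn from 3228 arrays in the Consortium for Functional Glycomics database, restricted to those with a known protein sequence. Scores were averaged over arrays of the same protein sequence at different concentrations or buffers, and over linkers, and negative values can be taken as non-binding.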"}, "[2]": {"target": "GlcNAc(b1-3)Gal(b1-4)GlcNAc(b1-3)GalNAc", "summary_of_the_method": "as §1"}, "[3]": {"target": "GlcNAc(b1-3)Gal(b1-4)GlcNAc(b1-3)[GlcNAc(b1-3)Gal(b1-4)GlcNAc(b1-3)]GalNAc", "summary_of_the_method": "as §1"}, "[4]": {"target": "GlcNAc(b1-3)Gal(b1-4)GlcNAc(b1-6)[Gal(b1-3)]GalNAc", "summary_of_the_method": "as §1"}, "[5]": {"target": "GlcNAc(b1-3)Gal(b1-4)GlcNAc(b1-6)[GlcNAc(b1-3)Gal(b1-3)]GalNAc", "summary_of_the_method": "as §1"}, "[6]": {"target": "GlcNAc(b1-3)Gal(b1-4)GlcNAc(b1-6)[GlcNAc(b1-3)]Gal(b1-4)GlcNAc", "summary_of_the_method": "as §1"}, "GlcNAc(b1-3)GalNAc": {"target": "GlcNAc(b1-3)GalNAc", "summary_of_the_method": "as §1"}, "GlcNAc(b1-3)Man": {"target": "GlcNAc(b1-3)Man", "summary_of_the_method": "as §1"}, "[7]": {"target": "GlcNAc(b1-3)[GlcNAc(b1-4)][GlcNAc(b1-6)]GlcNAc", "summary_of_the_method": "as §1"}, "[8]": {"target": "GlcNAc(b1-3)[GlcNAc(b1-6)]Gal(b1-4)GlcNAc", "summary_of_the_method": "as §1"}, "[9]": {"target": "GlcNAc(b1-3)[GlcNAc(b1-6)]GalNAc", "summary_of_the_method": "as §1"}, "[10]": {"target": "GlcNAc(b1-4)Gal(b1-4)GlcNAc", "summary_of_the_method": "as §1"}, "GlcNAc(b1-4)GlcNAc": {"target": "GlcNAc(b1-4)GlcNAc", "summary_of_the_method": "as §1"}, "[11]": {"target": "GlcNAc(b1-4)GlcNAc(b1-4)GlcNAc", "summary_of_the_method": "as §1"}, "[12]": {"target": "GlcNAc(b1-4)GlcNAc(b1-4)GlcNAc(b1-4)GlcNAc(b1-4)GlcNAc", "summary_of_the_method": "as §1"}, "[13]": {"target": "GlcNAc(b1-4)GlcNAc(b1-4)GlcNAc(b1-4)GlcNAc(b1-4)GlcNAc(b1-4)GlcNAc", "summary_of_the_method": "as §1"}, "[14]": {"target": "GlcNAc(b1-4)[GlcNAc(b1-6)]GalNAc", "summary_of_the_method": "as §1"}, "[15]": {"target": "GlcNAc(b1-6)Gal(b1-4)GlcNAc", "summary_of_the_method": "as §1"}, "GlcNAc(b1-6)GalNAc": {"target": "GlcNAc(b1-6)GalNAc", "summary_of_the_method": "as §1"}, "[16]": {"target": "GlcNAc6S(b1-3)Gal(b1-4)GlcNAc", "summary_of_the_method": "as §1"}, "Kdn(a2-3)Gal(b1-3)GalNAc": {"target": "Kdn(a2-3)Gal(b1-3)GalNAc", "summary_of_the_method": "as §1"}, "Kdn(a2-3)Gal(b1-3)GlcNAc": {"target": "Kdn(a2-3)Gal(b1-3)GlcNAc", "summary_of_the_method": "as §1"}, "Kdn(a2-3)Gal(b1-4)Glc": {"target": "Kdn(a2-3)Gal(b1-4)Glc", "summary_of_the_method": "as §1"}, "Kdn(a2-3)Gal(b1-4)GlcNAc": {"target": "Kdn(a2-3)Gal(b1-4)GlcNAc", "summary_of_the_method": "as §1"}, "[17]": {"target": "Kdn(a2-3)Gal(b1-4)[Fuc(a1-3)]GlcNAc", "summary_of_the_method": "as §1"}, "Kdn(a2-6)Gal(b1-4)GlcNAc": {"target": "Kdn(a2-6)Gal(b1-4)GlcNAc", "summary_of_the_method": "as §1"}, "[18]": {"target": "Man(a1-2)Man(a1-2)Man(a1-3)Man", "summary_of_the_method": "as §1"}, "[19]": {"target": "Man(a1-2)Man(a1-2)Man(a1-6)[Man(a1-3)]Man", "summary_of_the_method": "as §1"}, "Man(a1-2)Man(a1-3)Man": {"target": "Man(a1-2)Man(a1-3)Man", "summary_of_the_method": "as §1"}, "[20]": {"target": "Man(a1-2)Man(a1-3)[Man(a1-2)Man(a1-6)]Man", "summary_of_the_method": "as §1"}, "[21]": {"target": "Man(a1-2)Man(a1-3)[Man(a1-2)Man(a1-6)]Man(a1-6)[Man(a1-2)Man(a1-2)Man(a1-3)]Man", "summary_of_the_method": "as §1"}, "[22]": {"target": "Man(a1-2)Man(a1-3)[Man(a1-2)Man(a1-6)]Man(a1-6)[Man(a1-2)Man(a1-2)Man(a1-3)]Man(b1-4)GlcNAc(b1-4)GlcNAc", "summary_of_the_method": "as §1"}, "[23]": {"target": "Man(a1-2)Man(a1-3)[Man(a1-6)]Man(a1-6)[Man(a1-2)Man(a1-3)]Man(b1-4)GlcNAc(b1-4)GlcNAc", "summary_of_the_method": "as §1"}, "[24]": {"target": "Man(a1-2)Man(a1-6)[Man(a1-3)]Man(a1-6)[Man(a1-2)Man(a1-2)Man(a1-3)]Man", "summary_of_the_method": "as §1"}, "[25]": {"target": "Man(a1-2)Man(a1-6)[Man(a1-3)]Man(a1-6)[Man(a1-2)Man(a1-2)Man(a1-3)]Man(b1-4)GlcNAc(b1-4)GlcNAc", "summary_of_the_method": "as §1"}, "Man(a1-3)[Man(a1-6)]Man": {"target": "Man(a1-3)[Man(a1-6)]Man", "summary_of_the_method": "as §1"}, "[26]": {"target": "Man(a1-3)[Man(a1-6)]Man(a1-6)[Man(a1-2)Man(a1-3)]Man(b1-4)GlcNAc(b1-4)GlcNAc", "summary_of_the_method": "as §1"}},
  "note": "The other results are listed elsewhere or left out.",
  "data": [
    {"binder": "FliC (Pseudomonas aeruginosa), P72151 (protein) MALTVNTNIASLNTQRNLNASSNDLNTSLQRLTTGYRINSAKDDAAGLQISNRLSNQISGLNVATRNANDGISLAQTAEGALQQSTNILQRIRDLALQSANGSNSDADRAALQKEVAAQQAELTRISDTTTFGGRKLLDGSFGTTSFQVGSNAYETIDISLQNASASAIGSYQVGSNGAGTVASVAGTATASGIASGTVNLVGGGQVKNIAIAAGDSAKAIAEKMDGAIPNLSARARTVFTADVSGVTGGSLNFDVTVGSNTVSLAGVTSTQDLADQLNSNSSKLGITASINDKGVLTITSATGENVKFGAQTGTATAGQVAVKVQGSDGKFEAAAKNVVAAGTAATTTIVTGYVQLNSPTAYSVSGTGTQASQVFGNASAAQKSSVASVDISTADGAQNAIAVVDNALAAIDAQRADLGAVQNRFKNTIDNLTNISENATNARSRIKDTDFAAETAALSKNQVLQQAGTAILAQANQLPQAVLSLLR", "values": [
      {"measurement": "glycan array binding signal (z-score)", "setting": "[1]", "result": -0.143},
      {"measurement": "glycan array binding signal (z-score)", "setting": "[2]", "result": -0.224},
      {"measurement": "glycan array binding signal (z-score)", "setting": "[3]", "result": 0.006},
      {"measurement": "glycan array binding signal (z-score)", "setting": "[4]", "result": -0.093},
      {"measurement": "glycan array binding signal (z-score)", "setting": "[5]", "result": -0.022},
      {"measurement": "glycan array binding signal (z-score)", "setting": "[6]", "result": -0.238},
      {"measurement": "glycan array binding signal (z-score)", "setting": "GlcNAc(b1-3)GalNAc", "result": -0.167},
      {"measurement": "glycan array binding signal (z-score)", "setting": "GlcNAc(b1-3)Man", "result": -0.189},
      {"measurement": "glycan array binding signal (z-score)", "setting": "[7]", "result": -0.203},
      {"measurement": "glycan array binding signal (z-score)", "setting": "[8]", "result": -0.061},
      {"measurement": "glycan array binding signal (z-score)", "setting": "[9]", "result": -0.16},
      {"measurement": "glycan array binding signal (z-score)", "setting": "[10]", "result": -0.139},
      {"measurement": "glycan array binding signal (z-score)", "setting": "GlcNAc(b1-4)GlcNAc", "result": -0.232},
      {"measurement": "glycan array binding signal (z-score)", "setting": "[11]", "result": -0.243},
      {"measurement": "glycan array binding signal (z-score)", "setting": "[12]", "result": -0.055},
      {"measurement": "glycan array binding signal (z-score)", "setting": "[13]", "result": -0.199},
      {"measurement": "glycan array binding signal (z-score)", "setting": "[14]", "result": -0.148},
      {"measurement": "glycan array binding signal (z-score)", "setting": "[15]", "result": -0.196},
      {"measurement": "glycan array binding signal (z-score)", "setting": "GlcNAc(b1-6)GalNAc", "result": -0.066},
      {"measurement": "glycan array binding signal (z-score)", "setting": "[16]", "result": -0.111},
      {"measurement": "glycan array binding signal (z-score)", "setting": "Kdn(a2-3)Gal(b1-3)GalNAc", "result": -0.222},
      {"measurement": "glycan array binding signal (z-score)", "setting": "Kdn(a2-3)Gal(b1-3)GlcNAc", "result": -0.132},
      {"measurement": "glycan array binding signal (z-score)", "setting": "Kdn(a2-3)Gal(b1-4)Glc", "result": -0.115},
      {"measurement": "glycan array binding signal (z-score)", "setting": "Kdn(a2-3)Gal(b1-4)GlcNAc", "result": -0.064},
      {"measurement": "glycan array binding signal (z-score)", "setting": "[17]", "result": -0.144},
      {"measurement": "glycan array binding signal (z-score)", "setting": "Kdn(a2-6)Gal(b1-4)GlcNAc", "result": -0.166},
      {"measurement": "glycan array binding signal (z-score)", "setting": "[18]", "result": 0.029},
      {"measurement": "glycan array binding signal (z-score)", "setting": "[19]", "result": -0.175},
      {"measurement": "glycan array binding signal (z-score)", "setting": "Man(a1-2)Man(a1-3)Man", "result": -0.16},
      {"measurement": "glycan array binding signal (z-score)", "setting": "[20]", "result": -0.155},
      {"measurement": "glycan array binding signal (z-score)", "setting": "[21]", "result": -0.179},
      {"measurement": "glycan array binding signal (z-score)", "setting": "[22]", "result": -0.189},
      {"measurement": "glycan array binding signal (z-score)", "setting": "[23]", "result": -0.253},
      {"measurement": "glycan array binding signal (z-score)", "setting": "[24]", "result": 0.038},
      {"measurement": "glycan array binding signal (z-score)", "setting": "[25]", "result": -0.129},
      {"measurement": "glycan array binding signal (z-score)", "setting": "Man(a1-3)[Man(a1-6)]Man", "result": -0.107},
      {"measurement": "glycan array binding signal (z-score)", "setting": "[26]", "result": -0.136}
    ]}
  ]
}
